Screen size: about 310,000 compounds; about 14,000 (4.5%) showed an effect of 50% or more. The effect is printed as a negative number. This is one part of the list.
These compounds were tested against human ether-à-go-go-related gene (hERG) potassium channel (human, UniProt Q12809) (assay: primary screen, population patch clamp on CHO cells stably expressing hERG).
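Note: peak tail current of the secondary pulse compared with the same well before compound.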

Sequence of human ether-à-go-go-related gene (hERG) potassium channel (Q12809 whole entry, looked up): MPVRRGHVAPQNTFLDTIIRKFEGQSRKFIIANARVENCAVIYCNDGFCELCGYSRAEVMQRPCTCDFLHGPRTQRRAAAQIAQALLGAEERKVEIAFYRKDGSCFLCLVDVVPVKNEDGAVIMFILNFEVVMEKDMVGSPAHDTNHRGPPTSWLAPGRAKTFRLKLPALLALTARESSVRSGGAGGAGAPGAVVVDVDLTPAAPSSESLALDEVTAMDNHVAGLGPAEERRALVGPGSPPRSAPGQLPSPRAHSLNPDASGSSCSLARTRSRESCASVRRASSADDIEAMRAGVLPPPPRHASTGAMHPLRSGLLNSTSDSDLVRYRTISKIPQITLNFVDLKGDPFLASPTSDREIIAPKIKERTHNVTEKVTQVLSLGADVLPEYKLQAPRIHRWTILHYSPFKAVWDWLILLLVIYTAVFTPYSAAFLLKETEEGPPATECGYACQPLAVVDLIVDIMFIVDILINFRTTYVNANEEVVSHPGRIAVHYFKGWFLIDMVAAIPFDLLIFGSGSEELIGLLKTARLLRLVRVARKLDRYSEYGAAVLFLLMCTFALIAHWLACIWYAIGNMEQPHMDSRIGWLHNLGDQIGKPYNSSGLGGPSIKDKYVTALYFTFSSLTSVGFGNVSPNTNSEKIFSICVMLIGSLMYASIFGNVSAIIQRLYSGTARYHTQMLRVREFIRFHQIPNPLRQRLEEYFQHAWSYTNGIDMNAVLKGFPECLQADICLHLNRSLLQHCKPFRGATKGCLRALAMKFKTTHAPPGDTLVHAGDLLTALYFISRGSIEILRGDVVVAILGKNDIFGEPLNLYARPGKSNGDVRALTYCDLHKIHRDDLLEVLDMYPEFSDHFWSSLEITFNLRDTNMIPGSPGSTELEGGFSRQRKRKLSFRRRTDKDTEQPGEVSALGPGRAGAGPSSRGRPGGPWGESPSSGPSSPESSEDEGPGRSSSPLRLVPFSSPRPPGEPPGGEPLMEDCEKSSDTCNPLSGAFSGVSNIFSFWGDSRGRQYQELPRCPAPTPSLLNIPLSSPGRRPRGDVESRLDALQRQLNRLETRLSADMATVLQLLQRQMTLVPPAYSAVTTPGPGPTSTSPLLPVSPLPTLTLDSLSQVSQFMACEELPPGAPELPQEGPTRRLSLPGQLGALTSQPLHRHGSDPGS

Structure (SMILES)	hERG current change (%, negative = inhibition) at 10uM
O=C(Nc1ccc(Oc2ccccc2)cc1)c1cnc2n(c1=O)CCS2	19.4%
COc1ccc(C(=O)N2CCCC(CCC(=O)N3CCN(c4ccccn4)CC3)C2)cc1 (stereo not drawn)	-12.3%
COc1cc(-c2nnc(COC(=O)c3ccc(C)o3)o2)cc(OC)c1OC	7.46%
CC(=O)c1ccc(NC(=O)C(Cc2ccccc2)NC(=O)c2ccco2)cc1 (stereo not drawn)	-5.77%
CN(C)NC(=S)Nc1cccc(C(F)(F)F)c1	3.31%
O=C(CSc1ncc(-c2ccc(F)cc2)[nH]1)NCc1ccco1	-0.752%
CC(CN1CCOCC1)OC(=O)c1ccccc1.Cl (stereo not drawn)	11.8%
CCCSCCCNC(=O)CC1Oc2ccccc2NC1=O (stereo not drawn)	-11.2%
COc1cccc(NC(=O)CN2CCN(S(=O)(=O)c3ccc(C(C)C)cc3)CC2)c1	-22.8%
Clc1ccc(-n2ncc3c(NCc4ccco4)ncnc32)cc1	0.631%
Cc1ccc(-c2csc(NNC(=O)c3ccccc3)n2)cc1	-15.4%
COc1ccc(-n2cccc2C=O)cc1	16.7%
CCN1CCN(c2c(Cl)cccc2NC(=O)c2ccc3nsnc3c2)CC1	-49.5%
CC(=O)c1c(C)oc2ccc(N(C(=O)C3CCCCC3)S(=O)(=O)c3cc([N+](=O)[O-])ccc3C)cc12	-1.48%
OC(c1cccs1)c1nccc2ccccc12 (stereo not drawn)	13.3%
COc1ccc(CC(=O)n2nc(-c3ccc(Cl)cc3)nc2NCc2ccco2)cc1	5.43%
COC(=O)c1ccc2c(=O)n(-c3ccccc3F)c(=S)[nH]c2c1	13.1%
O=C(c1ccc(F)cc1)N1CCC(c2ccccc2)C1 (stereo not drawn)	2.75%
COc1cccc(NC(=O)N(Cc2ccco2)C(C)c2cccs2)c1 (stereo not drawn)	8.59%
COCc1c(C(=O)OCc2nc(N)nc(Nc3ccccc3C)n2)oc2ccccc12	-0.995%
O=C(Nc1ccc(Cl)cc1)Nc1ccc(N2CCC(C(F)(F)F)CC2)nc1	2.39%
COC(=O)c1ccccc1OP(=O)(c1cccc([N+](=O)[O-])c1)c1cccc([N+](=O)[O-])c1	-26.1%
CC(C)c1nnc(NC(=O)Cc2ccc(Br)cc2)s1	13%

Structure (SMILES)	hERG current change (%, negative = inhibition) at 10uM
Cc1ccc(CNC(=O)c2ccc(Cl)c(S(N)(=O)=O)c2)n1C	11.4%
COC(=O)CCC(=O)Nc1ccc(Cl)c(Cl)c1	-1.38%
COc1ccc(NC(=O)CC(C(=O)O)C(C)c2ccccc2)cc1 (stereo not drawn)	16.6%
CCCc1cc(Nc2cccc(OCC)c2)n2ncnc2n1	-68%
Brc1ccc(-c2csc(N3CCC(c4ccccc4)C3)n2)cc1 (stereo not drawn)	-2.28%
CN(CC(=O)Nc1ccc(Cl)cc1)CC(=O)Nc1cccc(Br)c1	-13.1%
COC(=O)C1=C(N)OC2=C(C(=O)CCC2)C1c1ccc2c(c1)OCO2 (stereo not drawn)	10.6%
O=C1CSC(c2cn(-c3ccccc3)nc2-c2cc3ccccc3o2)N1Cc1ccccc1 (stereo not drawn)	-6.82%
COc1cc(OC)c(C2=NOC(C(=O)NCc3cccs3)C2)cc1Cl (stereo not drawn)	-0.985%
CCOc1ccc(-n2c(COc3ccc(C)cc3)nnc2SCC(N)=O)cc1	-25.9%
CC(C)c1nc2oc3ccccc3c(=O)c2c(=O)n1-c1ccccc1	-2.83%
O=C(CCc1nnc2ccc(NCc3ccccc3)nn12)NCC1CCN(C2CCCC2)C1 (stereo not drawn)	14.2%
CC(=O)Cn1cnc2c(sc3nc(C)cc(C)c32)c1=O	16.1%
O=C(/C=C/c1ccco1)Oc1ccc(C(=S)N2CCOCC2)cc1	14.4%
COc1cccc(OCC(=O)NNC(=O)Cc2cccs2)c1	29%
O=C(NCc1cccs1)c1cc2c(s1)CCCC2	-9.4%
O=C(Cn1nnc(-c2ccccc2F)n1)OCC(=O)c1ccccc1	10.9%
COc1ccc(/C=C\C(=O)CC(O)(c2ccccc2)C(F)(F)F)cc1 (stereo not drawn)	3.32%
CCN(CC)CCNC(=O)Cn1cnc2sc(C)c(S(=O)(=O)N3CC(C)CC(C)C3)c2c1=O (stereo not drawn)	24.8%
O=C(COC(=O)c1ccc2ccccc2c1O)NCC(F)(F)F	-3.05%
CC(C(=O)N1CCN(C)CC1)N1C(=O)c2ccccc2C1=O (stereo not drawn)	15.9%
Cc1cc(C)n(C(=O)c2ccc(Cl)c(F)c2F)n1	1.58%
COc1ccc(OC)c(C(=O)c2ccc(C(=O)N3CCN(Cc4csc(C)n4)CC3)cc2)c1	15.8%

Structure (SMILES)	hERG current change (%, negative = inhibition) at 10uM
O=[N+]([O-])c1cccc(/C=N\N2CCN(c3ccc(Cl)cc3)CC2)c1	7.38%
CC(=O)Oc1ccc(-c2ccc(C(=O)O)cc2)cc1	0.515%
CCN(CC)C(=O)c1ccc(NC(=O)c2cccc(C(F)(F)F)c2)cc1	4.47%
O=C1NC(CCc2ccccc2)C(=O)N1Cc1ccc(Br)cc1 (stereo not drawn)	-12.9%
O=C(Cc1c(O)c2ccccc2[nH]c1=O)NCc1cccc(F)c1	-12.7%
O=[N+]([O-])c1ccc(N2CCN(Cc3ccc4c(c3)OCO4)CC2)nc1	-54.4%
COc1cc(/C=C/C(=O)OCC(=O)Nc2ccccc2Cl)cc(OC)c1OC	17.1%
COc1ccccc1-c1nc(SCC(=O)N2CCOCC2)n[nH]1	16.9%
CCOc1ccccc1-n1c(SCC(N)=O)nnc1-c1ccco1	-22.7%
CC(C)C(c1nnnn1C1CCCC1)N1CCC(C(N)=O)CC1 (stereo not drawn)	5.38%
CCC(CO)Nc1ncnc2c1cnn2-c1ccc(Cl)cc1 (stereo not drawn)	-5.24%
C/C(=N\NC(=O)c1nc(C)cc(C)n1)c1ccccc1	-4.12%
CN(C)CCCNC(=O)/C(=C\C=C\c1ccccc1)NC(=O)c1ccc([N+](=O)[O-])cc1	-71.2%
CCOc1ccc(NC(=O)COc2ccc(C(=O)NCc3cccnc3)cc2OC)cc1	12.2%
CCC(C)[C@H]1CN=C(N)N1CC1CCCCC1 (stereo partly drawn)	12.6%
N#CC1=C(N)Nc2ncnn2C1c1ccc([N+](=O)[O-])cc1 (stereo not drawn)	-29%
O=[N+]([O-])c1ncn(Cc2ccccc2Cl)n1	13%
COc1ccccc1N1CCN(C(=O)c2ccc(N(C)S(=O)(=O)c3ccccc3)cc2)CC1	-35.4%
C=CCNC(=S)NNC(=O)COc1ccc2cc(Br)ccc2c1	20.2%
O=C(c1ccccc1)c1ccc(OCC(=O)N2CCOCC2)cc1	2.71%
CN1C(=O)C(O)(CC(=O)/C=C\c2ccc3c(c2)OCO3)c2ccccc21 (stereo not drawn)	7.56%
Cc1csc(CNC(=O)c2ccc(OC3CCN(CCc4ccccc4)CC3)cc2)n1	-55.3%
CCN(CC)c1ccc(NC(=O)c2ccccc2F)cc1	-9.39%

Structure (SMILES)	hERG current change (%, negative = inhibition) at 10uM
COc1ccccc1NC(=O)c1ccc(NC(=O)CN2C(=O)CN(C)C2=O)cc1	1.06%
O=C(O)COc1ccc(Nc2ccccc2)cc1	3.34%
N#Cc1c2ncn(CC(=O)c3ccc(Br)cc3)c(=O)c2c2n1CCC2	-6.58%
CC(/C=C1\SC(=S)N(NC(=O)c2ccccc2C)C1=O)=C\c1ccccc1	26%
Cc1ccc2oc(C(=O)N3CCC(C(N)=O)(N4CCCCC4)CC3)c(C)c2c1	-27%
O=C(O)CC(CNS(=O)(=O)c1cccc2nsnc12)c1ccccc1 (stereo not drawn)	11.8%
CN(C)C(=O)c1c(C(F)(F)F)nn(C)c1Cl	15.2%
O=C(O)c1ccc2c(=O)n(-c3ccc(F)c(Cl)c3)c(=S)[nH]c2c1	27.5%
Cc1ccccc1C(=O)Oc1ccc2ccc(O)cc2c1	14.5%
CN(C1=NC(=O)C(CC(=O)O)S1)c1ccc(O)cc1 (stereo not drawn)	6.54%
O=C(CNC(=O)c1ccccn1)N=Nc1c(O)[nH]c2ccccc12	13.7%
CN(C)c1ccc(NC(=O)CN2CCC(NC(=O)C3CCCCC3)CC2)cc1	8.23%
O=C(Cn1c(=O)oc2ccccc21)Nc1ccccc1C(F)(F)F	21.6%
O=C1Nc2ccc([N+](=O)[O-])cc2OC1CCN1CCOCC1 (stereo not drawn)	6.19%
COc1ccccc1/C=C(\NC(=O)c1ccc(OC)c(OC)c1)C(=O)Nc1cc([N+](=O)[O-])ccc1C	9.68%
O=C(c1ccco1)N1CCN(C(=O)c2cnn(-c3ccc(Cl)cc3)c2C2CCNCC2)CC1	15%
COCCn1c(SCC(=O)NNC(=O)c2cc(Cl)ccc2OC)nnc1-c1ccncc1	-7.79%
COc1ccc(C(=S)N2CCCC2)cc1Br	-7.39%
CCCOc1ccc(C(=O)Nc2ccc(C)cc2[N+](=O)[O-])cc1	7.82%
Cc1occc1C(=O)Nc1nn[nH]n1	10.1%
CCCCc1cc(=O)oc2c(CN3CCCC3)c(O)c(Cl)cc12	-20.9%

— PMC4336329 (PLoS ONE, 2015)
